Assay results published in PubChem BioAssay AID1671194 (National Center for Advancing Translational Sciences (NCATS), 2021).
In all, about 140,000 compounds went through this assay and about 240 (0.17%) were called active. Inconclusive means that the source gave no clear call. Such entries were picked first, then a sample of the others. The call rests on the fitted dose curve; in most records, active means well fitted inhibition curve with a large enough effect; inconclusive means small, poorly fitted or top-dose-only effect; inactive means no such curve, though single readings can be large or run the other way. Potencies of inconclusive entries are doubtful fits and often do not repeat.
Potency means the concentration at half of the fitted maximal effect; tags describe the fitted curve by direction and shape.

Experiment: Primary qHTS assay for inhibitors of alpha-synuclein gene (SNCA) expression; further: nearly all actives have a fitted effect of over 45% in size
Details: HEK-293 SNCA-luciferase knock-in, luminescence, 24 h; series mostly up to 57.2 µM
In the case of `CCOc1ccccc1CN(C)C1CCc2nn(CC3CC3)c(=O)n2CC1` (stereo not drawn), the Potency is reported as “inactive”. For `CC(C)C(=O)Nc1ccccc1OCc1cc(=O)n2ccccc2n1`, the Potency was inconclusive: 39.8 µM [inhibitor, single point]. For `Cc1ccc(-c2cn3cc(C(=O)NCC(C)C)nc3s2)cc1`, the Potency was “inactive”. In the case of `CCC(Oc1ccccc1F)C(=O)N1CCC(c2nc3ccccc3s2)CC1` (stereo not drawn), the Potency is reported as inconclusive: 22.4 µM [inhibitor, partial curve, poor fit]. In the case of `CCOC(=O)CCNC(=O)N1CCCCCCNC(=O)[C@@H]2C[C@@H](c3nc(-c4cccnc4)no3)C[C@@H]21`, the Potency is reported as inconclusive: 5.01 µM [inhibitor, full curve, poor fit]. With `COC(=O)[C@@H]1Cc2c([nH]c3ccccc23)[C@H]2C[C@H](N3CCCCC3)C[C@@H](c3ccccc3F)N21` the Potency was inconclusive: 39.8 µM [inhibitor, single point]. With `Cc1ccc(-c2noc([C@@H]3Cc4nc[nH]c4CN3C(=O)NC3CCCCC3)n2)cc1` the Potency was inconclusive: 1.78 µM [inhibitor, full curve, poor fit]. In the case of `Cn1nc(C(=O)NC2CCN(C(=O)N3CC4CC(C3)[C@H]3CCCC(=O)N3C4)CC2)c2ccccc21` (stereo partly drawn), the Potency is reported as inconclusive: 8.91 µM [inhibitor, single point]. With `CC(=O)NC1(C)CCCN(Cc2cc(-c3ccccc3)cs2)C1` (stereo not drawn) the Potency was “inactive”. In the case of `CNS(=O)(=O)c1cn(CC(=O)N2CCN(c3cccc(C)c3C)CC2)cc1S(=O)(=O)NC`, the Potency is reported as inconclusive: 3.98 µM [inhibitor, single point]. With `CC(=O)N1CCN(Cc2ccc(-c3cnc4c(OCc5ccccc5)nccn34)cc2)CC1` the Potency was “inactive”. For `COc1ccc2c(c1)CCc1c(C(=O)Nc3c(C)nn(Cc4ccccc4C)c3C)noc1-2`, the Potency was inconclusive: 39.8 µM [inhibitor, single point]. In the case of `CCCc1noc(-c2cccn3c(CNC(=O)Cc4ccccc4Cl)nnc23)n1`, the Potency is reported as inconclusive: 2.51 µM [inhibitor, partial curve, poor fit]. In the case of `COc1cc(CNC(=O)c2ccc3nc(CCc4ccccc4)oc3c2)cc(OC)c1OC`, the Potency is reported as inconclusive: 25.1 µM [inhibitor, single point]. In the case of `CN1CC(=O)N(c2cccnc2)Cc2c1ncnc2N1CCN(c2ncccn2)CC1`, the Potency is reported as inconclusive: 1.58 µM [inhibitor, partial curve, poor fit]. With `Cc1oc(-c2ccc(Cl)cc2)nc1CS(=O)CC(=O)N1CCN(c2cccc(C(F)(F)F)c2)CC1` (stereo not drawn) the Potency was inconclusive: 39.8 µM [inhibitor, single point]. For `COc1cccc(N2CCN(c3ncnc4c3nc3n4CCCCC3)CC2)c1`, the Potency was inconclusive: 12.6 µM [inhibitor, single point]. In the case of `CC(=O)NCCC1CCN(C(=O)Nc2ccc(C)cc2)CC1`, the Potency is reported as inconclusive: 39.8 µM [inhibitor, single point]. In the case of `Brc1ccc(-c2nc3ccccn3c2Nc2ccc3c(c2)OCCO3)o1`, the Potency is reported as inconclusive: 39.8 µM [inhibitor, single point]. In the case of `COc1cccc(CN2CCCn3nc(C)c(-c4cnccc4C)c32)c1`, the Potency is reported as inconclusive: 63.1 µM [inhibitor, partial curve, poor fit]. With `CSc1ccc(NC(=O)N2CCc3nc4cc(-c5ccccc5)[nH]n4c(=O)c3C2)cc1` the Potency was inconclusive: 39.8 µM [inhibitor, single point]. With `CC(C)(C(=O)NCC(F)(F)C(F)(F)F)C(=O)N[C@@H]1C(=O)Nc2ccccc2-c2ccccc21` the Potency was inconclusive: 42.9 µM [inhibitor, single point]. For `CN(Cc1ccccc1)C(=O)[C@H]1C[C@@H](O)[C@H](O)[C@@H]2N=C(Nc3ccc(Cl)cc3)S[C@@H]21`, the Potency was inconclusive: 22.4 µM [inhibitor, partial curve, poor fit]. With `CCn1cc(-c2ccc(Cl)cc2)cc1C(=O)N1CCCN(C)CC1` the Potency was “inactive”. For `COc1ccc(C(=O)N2CCN(C(=O)c3nnn4c3COC(c3ccc(F)cc3)C4)CC2)cc1F` (stereo not drawn), the Potency was inconclusive: 14.1 µM [inhibitor, partial curve, poor fit]. With `O=C(NCc1ccccc1Cl)C1CCCN(S(=O)(=O)c2cccc3nsnc23)C1` (stereo not drawn) the Potency was “inactive”. For `COc1ccc(C(=O)NC2CCN(c3cc(-c4ccc(Cl)cc4)[nH]n3)C2)cc1F` (stereo not drawn), the Potency was inconclusive: 39.8 µM [inhibitor, single point]. With `COc1ccc2[nH]c3c(c2c1)CCNC31CCN(C(C)C)CC1` the Potency was “inactive”. In the case of `COC1CCC12CCN(C(=O)c1ccccn1)CC2` (stereo not drawn), the Potency is reported as inconclusive: 10 µM [inhibitor, partial curve, poor fit]. In the case of `Cn1c(=O)c2c(n3c4ccccc4nc13)NC(=O)CC2c1cccc(F)c1` (stereo not drawn), the Potency is reported as “inactive”. In the case of `COCCn1c2c([n+](Cc3cnccn3)c1C)C(=O)c1ccccc1C2=O`, the Potency is reported as active: 0.0961 µM. With `Cc1ccc(CNC(=O)N2CCc3nc(-c4ccccc4)[nH]c3C2)cc1` the Potency was “inactive”. In the case of `O=C(NCCNC(=O)c1cccc(-c2ccsc2)c1)c1ccc(Cl)nc1`, the Potency is reported as inconclusive: 39.8 µM [inhibitor, single point]. For `COc1cccc(N2CCN(C(=O)CCCn3c(=O)[nH]c4ccc(Br)cc4c3=O)CC2)c1`, the Potency was inconclusive: 39.8 µM [inhibitor, single point]. In the case of `CC(C)NC(=O)N(C1CCOCC1)C1CNC1`, the Potency is reported as inconclusive: 8.91 µM [inhibitor, single point]. For `CN1CCN(Cc2ccc(-c3cnc4c(OCc5ccccc5)nccn34)cc2)CC1`, the Potency was “inactive”. In the case of `CN(Cc1ccccc1)Cc1ccccc1OCC(O)CN1CCCCC1` (stereo not drawn), the Potency is reported as “inactive”. For `COc1cccc2sc(NC(=O)c3ccc4c(c3)OCCN(C3CCC3)C4)nc12`, the Potency was inconclusive: 56.2 µM [inhibitor, single point]. In the case of `O=C1CC[C@@H](C(=O)N2CCc3onc(C(c4ccccc4)c4ccccc4)c3C2)N1`, the Potency is reported as inconclusive: 8.91 µM [inhibitor, single point]. For `O=C(c1ccsc1)N1CC(Oc2ccc(-c3nc(-c4ccccc4)no3)cc2)C1`, the Potency was “inactive”. For `Cc1cc(C)cc(-c2nc(C3CC(=O)N(c4ccc(F)cc4)C3)no2)c1` (stereo not drawn), the Potency was “inactive”. In the case of `COc1nccnc1NC1CCN(C(=O)c2cnn3cccnc23)CC1`, the Potency is reported as “inactive”. With `COc1ccc2[nH]c(C(=O)N3CCCN(S(=O)(=O)c4ccccc4)CCC(=O)NCC3)cc2c1` the Potency was “inactive”. In the case of `COc1ccccc1C(=O)N[C@@H]1CN(c2ncccn2)C[C@H]1CN(C)C`, the Potency is reported as “inactive”. In the case of `COc1ccccc1CC(=O)N1CCC2(CC1)N=C(c1cccc(Br)c1)NO2`, the Potency is reported as inconclusive: 12.6 µM [inhibitor, partial curve]. With `N#Cc1cccc(CN2CC3(COCC(=O)N(Cc4cccc(OC(F)(F)F)c4)C3)C2)c1` the Potency was inconclusive: 39.8 µM [inhibitor, single point]. In the case of `COc1ccc(C)cc1NC(=O)Nc1cccc(-c2ccc(N3CCCCC3)nn2)c1`, the Potency is reported as inconclusive: 10 µM [inhibitor, partial curve, poor fit]. For `COc1ccc(CNC(=O)CCC2N=C3c4ccccc4N=C(SCc4cccc(F)c4)N3C2=O)cc1` (stereo not drawn), the Potency was inconclusive: 7.08 µM [inhibitor, single point]. In the case of `O=C(O)CCC(=O)N[C@H]1CO[C@H]2[C@@H]1OC[C@@H]2Nc1nccc(-c2ccco2)n1`, the Potency is reported as “inactive”. In the case of `C[C@]1(CO)[C@H]2Cc3sc(NC(=O)c4cccc(F)c4)nc3[C@@H](CC(=O)NCc3ccco3)[C@]2(C)CC[C@H]1O`, the Potency is reported as inconclusive: 17.8 µM [inhibitor, single point]. In the case of `Cc1ccc(C(=O)c2cn(Cc3cccc(C)c3)c3nc(C)ccc3c2=O)cc1`, the Potency is reported as inconclusive: 22.4 µM [inhibitor, partial curve, poor fit]. With `Cn1cc([C@@H](NC(=O)c2cccc3c2NCCC3)C2CC(O)C2)cn1` (stereo partly drawn) the Potency was inconclusive: 2 µM [inhibitor, partial curve, poor fit]. With `COc1ccc(C(=O)N[C@H]2C[C@@H](Cc3cc(-c4ccccc4)on3)C2(C)C)cc1` the Potency was “inactive”. For `Cc1cccc(NC(=O)N2CCN(C(=O)c3nsc4ccccc34)CC2)c1C`, the Potency was inconclusive: 7.08 µM [inhibitor, single point]. With `Cn1cc(-c2[nH]c3cc(NC(=O)[C@H](N)C4CCCCC4)cc4c3c2C=NNC4=O)cn1` the Potency was inconclusive: 9.61 µM [inhibitor, full curve]. With `Cc1cc(N2CCCCC2)nc2ccc(NC(=O)/C=C/c3ccc(OC(C)C)cc3)cc12` the Potency was inconclusive: 7.08 µM [inhibitor, single point]. For `O[C@H]1[C@H](NCc2ccc(-c3ccccc3)cc2)[C@H]2CO[C@H](O2)[C@@H]1Sc1ccccc1`, the Potency was inconclusive: 56.2 µM [inhibitor, single point]. With `O=C(c1cccc(F)c1)N1CCC(Cc2nc(-c3ccccc3)no2)CC1` the Potency was inconclusive: 0.708 µM [inhibitor, full curve, poor fit]. With `COc1ccccc1-c1nnc2ccc(C(=O)NCc3ccc(F)cc3)cn12` the Potency was “inactive”. In the case of `CSc1cccc(Nc2cc(C(=O)NCCc3ccc(Cl)cc3)c3ccccc3n2)c1`, the Potency is reported as inconclusive: 11.2 µM [inhibitor, partial curve, poor fit]. In the case of `O=C1CCCc2cc(S(=O)(=O)N3CCCC(C(=O)Nc4ccc(F)c(Cl)c4)C3)ccc2N1` (stereo not drawn), the Potency is reported as inconclusive: 39.8 µM [inhibitor, single point]. In the case of `COc1ccc(C(=O)NC2CCN(Cc3cccc(-c4cccc(C)c4)c3)CC2)cc1`, the Potency is reported as inconclusive: 7.08 µM [inhibitor, partial curve, poor fit]. In the case of `CCCc1noc(-c2cn(C3CCN(C(=O)c4ccc(C#N)cc4)CC3)nn2)n1`, the Potency is reported as inconclusive: 12.6 µM [inhibitor, partial curve, poor fit].
